Results taken from the supplement of paper PMC8728848.
This is one part of the list.

Columns and labels:
Experiment in all cases: glycan array binding signal (z-score within array); higher = stronger binding
Conditions in all cases: glycan notation: IUPAC condensed, linker removed; mutation: R74S
Neu5Ac(a2-8)Neu5Ac = molecular target: Neu5Ac(a2-8)Neu5Ac
How it was run: (§1)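 Negative Z-scores can be read as non-binding. The Z-score is calculated within each array and then averaged across arrays of one protein sequence at different concentrations or buffers and across linkers. Arrays, 3228 in all, were curated from the Consortium for Functional Glycomics database and kept only where the protein sequence was available.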

[1] = molecular target: Neu5Ac(a2-8)Neu5Ac(a2-3)Gal(b1-3)GalNAc(b1-4)[Neu5Ac(a2-3)]Gal(b1-4)Glc
How it was run: as §1

[2] = molecular target: Neu5Ac(a2-8)Neu5Ac(a2-3)Gal(b1-3)GalNAc(b1-4)[Neu5Ac(a2-8)Neu5Ac(a2-3)]Gal(b1-4)Glc
How it was run: as §1

[3] = molecular target: Neu5Ac(a2-8)Neu5Ac(a2-3)Gal(b1-4)Glc
How it was run: as §1

[4] = molecular target: Neu5Ac(a2-8)Neu5Ac(a2-3)Gal(b1-4)GlcNAc
How it was run: as §1

[5] = molecular target: Neu5Ac(a2-8)Neu5Ac(a2-3)[Gal(b1-3)GalNAc(b1-4)]Gal(b1-4)Glc
How it was run: as §1

[6] = molecular target: Neu5Ac(a2-8)Neu5Ac(a2-3)[GalNAc(b1-4)]Gal(b1-4)Glc
How it was run: as §1

[7] = molecular target: Neu5Ac(a2-8)Neu5Ac(a2-8)Neu5Ac
How it was run: as §1

[8] = molecular target: Neu5Ac(a2-8)Neu5Ac(a2-8)Neu5Ac(a2-3)Gal(b1-4)Glc
How it was run: as §1

[9] = molecular target: Neu5Ac(a2-8)Neu5Ac(a2-8)Neu5Ac(a2-3)[Gal(b1-3)GalNAc(b1-4)]Gal(b1-4)Glc
How it was run: as §1

[10] = molecular target: Neu5Ac(a2-8)Neu5Ac(a2-8)Neu5Ac(a2-3)[GalNAc(b1-4)]Gal(b1-4)Glc
How it was run: as §1

[11] = molecular target: Neu5Ac(a2-8)Neu5Ac(a2-8)Neu5Ac(a2-8)Neu5Ac(a2-3)[GalNAc(b1-4)]Gal(b1-4)Glc
How it was run: as §1

[12] = molecular target: Neu5Ac(a2-8)Neu5Gc(a2-3)Gal(b1-4)GlcNAc
How it was run: as §1

[13] = molecular target: Neu5Ac(b2-6)Gal(b1-4)GlcNAc
How it was run: as §1

Neu5Ac(b2-6)GalNAc = molecular target: Neu5Ac(b2-6)GalNAc
How it was run: as §1

[14] = molecular target: Neu5Ac9Ac(a2-3)Gal(b1-3)GlcNAc
How it was run: as §1

[15] = molecular target: Neu5Ac9Ac(a2-3)Gal(b1-4)GlcNAc
How it was run: as §1

[16] = molecular target: Neu5Ac9Ac(a2-6)Gal(b1-4)GlcNAc
How it was run: as §1

[17] = molecular target: Neu5Gc(a2-3)Gal(b1-3)GlcNAc
How it was run: as §1

[18] = molecular target: Neu5Gc(a2-3)Gal(b1-3)[Fuc(a1-4)]GlcNAc
How it was run: as §1

Neu5Gc(a2-3)Gal(b1-4)Glc = molecular target: Neu5Gc(a2-3)Gal(b1-4)Glc
How it was run: as §1

[19] = molecular target: Neu5Gc(a2-3)Gal(b1-4)GlcNAc
How it was run: as §1

[20] = molecular target: Neu5Gc(a2-3)Gal(b1-4)GlcNAc(b1-3)Gal(b1-4)GlcNAc(b1-2)Man(a1-3)[Neu5Gc(a2-3)Gal(b1-4)GlcNAc(b1-3)Gal(b1-4)GlcNAc(b1-2)Man(a1-6)]Man(b1-4)GlcNAc(b1-4)GlcNAc
How it was run: as §1

[21] = molecular target: Neu5Gc(a2-3)Gal(b1-4)[Fuc(a1-3)]GlcNAc
How it was run: as §1

[22] = molecular target: Neu5Gc(a2-6)Gal(b1-4)GlcNAc
How it was run: as §1

Neu5Gc(a2-6)GalNAc = molecular target: Neu5Gc(a2-6)GalNAc
How it was run: as §1

[23] = molecular target: Neu5Gc(a2-8)Neu5Ac(a2-3)Gal(b1-4)GlcNAc
How it was run: as §1

[24] = molecular target: Neu5Gc(a2-8)Neu5Gc(a2-3)Gal(b1-4)GlcNAc
How it was run: as §1

[25] = molecular target: Neu5Gc(a2-8)Neu5Gc(a2-3)Gal(b1-4)GlcNAc(b1-3)Gal(b1-4)GlcNAc
How it was run: as §1

[26] = molecular target: Neu5Gc(a2-8)Neu5Gc(a2-6)Gal(b1-4)GlcNAc
How it was run: as §1

[27] = molecular target: Neu5Gc(b2-6)Gal(b1-4)GlcNAc
How it was run: as §1

B1: Gal 7 (Homo sapiens) (protein)
chain: MSNVPHKSSLPEGIRPGTVLRIRGLVPPNASRFHVNLLCGEEGGSDAALHFNPRLDTSEVVFNSKEGGSWGREESGPGVPFGRGQPFEVLIIASDDGFKAVVGDAQYHHFRHRLPLARVRLVEVGGDVQLDSVRIF
Neu5Ac(a2-8)Neu5Ac
  glycan array binding signal (z-score): -0.502
[1]
  glycan array binding signal (z-score): -0.193
[2]
  glycan array binding signal (z-score): 1.84
[3]
  glycan array binding signal (z-score): -0.342
[4]
  glycan array binding signal (z-score): -0.636
[5]
  glycan array binding signal (z-score): -0.236
[6]
  glycan array binding signal (z-score): -0.695
[7]
  glycan array binding signal (z-score): -0.378
[8]
  glycan array binding signal (z-score): -0.411
[9]
  glycan array binding signal (z-score): 0.564
[10]
  glycan array binding signal (z-score): -0.517
[11]
  glycan array binding signal (z-score): -0.4
[12]
  glycan array binding signal (z-score): -0.492
[13]
  glycan array binding signal (z-score): -0.507
Neu5Ac(b2-6)GalNAc
  glycan array binding signal (z-score): -0.701
[14]
  glycan array binding signal (z-score): -0.649
[15]
  glycan array binding signal (z-score): -0.498
[16]
  glycan array binding signal (z-score): -0.336
[17]
  glycan array binding signal (z-score): -0.382
[18]
  glycan array binding signal (z-score): -0.076
Neu5Gc(a2-3)Gal(b1-4)Glc
  glycan array binding signal (z-score): 0.977
[19]
  glycan array binding signal (z-score): -0.4
[20]
  glycan array binding signal (z-score): 1.39
[21]
  glycan array binding signal (z-score): -0.084
[22]
  glycan array binding signal (z-score): -0.402
Neu5Gc(a2-6)GalNAc
  glycan array binding signal (z-score): -0.437
[23]
  glycan array binding signal (z-score): -0.641
[24]
  glycan array binding signal (z-score): -0.512
[25]
  glycan array binding signal (z-score): -0.572
[26]
  glycan array binding signal (z-score): -0.589
[27]
  glycan array binding signal (z-score): 0.169
